{"source": "the BET-seq Pho4 binding data (Le et al. 2018)", "note": "The list shows a part of the results. Values were computed here from the reads of four pooled replicates and scatter widely.", "data": [{"molecular_target": "T1, Pho4 (S. cerevisiae) (UniProt P07270)", "T1 sequence": "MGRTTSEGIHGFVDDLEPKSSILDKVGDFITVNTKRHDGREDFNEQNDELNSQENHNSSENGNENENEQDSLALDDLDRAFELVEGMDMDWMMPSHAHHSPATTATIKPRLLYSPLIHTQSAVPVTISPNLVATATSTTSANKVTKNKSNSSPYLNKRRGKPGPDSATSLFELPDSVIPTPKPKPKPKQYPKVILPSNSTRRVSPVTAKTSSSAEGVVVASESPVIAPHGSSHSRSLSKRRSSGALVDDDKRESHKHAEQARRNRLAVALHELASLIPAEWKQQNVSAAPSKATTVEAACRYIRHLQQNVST", "test": "relative binding free energy (BET-seq); higher = weaker binding", "conditions": "reference: library average", "units": {"relative binding free energy": "kcal/mol"}, "values": [{"sequence": "TGGGACACGTGAGACT", "relative binding free energy": 0.4}, {"sequence": "CCGTACACGTGTTGGT", "relative binding free energy": 0.11}, {"sequence": "GTGGTCACGTGGATGA", "relative binding free energy": 0.17}, {"sequence": "GCTCGCACGTGGGGAA", "relative binding free energy": 0.06}, {"sequence": "GGTGACACGTGGTTAG", "relative binding free energy": 0.02}, {"sequence": "AGTTGCACGTGGCGTG", "relative binding free energy": -0.07}, {"sequence": "AGTGACACGTGTGCGT", "relative binding free energy": -0.07}, {"sequence": "TTCTTCACGTGTATAA", "relative binding free energy": 0.34}, {"sequence": "GGTGGCACGTGTTCGC", "relative binding free energy": -0.05}, {"sequence": "TATTGCACGTGGCTAG", "relative binding free energy": -0.03}, {"sequence": "GTATACACGTGAGTTG", "relative binding free energy": 0.22}, {"sequence": "AGTATCACGTGTCTAT", "relative binding free energy": 0.06}, {"sequence": "GAGAGCACGTGTTTGC", "relative binding free energy": 0.09}, {"sequence": "GTGGGCACGTGGTCCG", "relative binding free energy": -0.14}, {"sequence": "TGAAGCACGTGTTCTG", "relative binding free energy": -0.08}, {"sequence": "TTTGACACGTGAGGCA", "relative binding free energy": 0.14}, {"sequence": "TATGTCACGTGGCTTA", "relative binding free energy": -0.16}, {"sequence": "ACGGACACGTGTGTTT", "relative binding free energy": 0.03}, {"sequence": "AGTGTCACGTGTCATG", "relative binding free energy": -0.04}, {"sequence": "TTATGCACGTGAGGAG", "relative binding free energy": 0.33}, {"sequence": "TAGCTCACGTGCGTGT", "relative binding free energy": 0.03}, {"sequence": "ATATGCACGTGGTGTC", "relative binding free energy": -0.19}, {"sequence": "GTAGGCACGTGGCGAA", "relative binding free energy": -0.1}, {"sequence": "TGTGACACGTGGCTAT", "relative binding free energy": -0.13}, {"sequence": "GTGTGCACGTGGTAGC", "relative binding free energy": -0.01}, {"sequence": "TGGAACACGTGGAGGG", "relative binding free energy": 0.15}, {"sequence": "AGGGTCACGTGGACTG", "relative binding free energy": -0.02}, {"sequence": "TGAATCACGTGTGCGG", "relative binding free energy": 0.18}, {"sequence": "TGGTACACGTGTGTCT", "relative binding free energy": -0.16}, {"sequence": "AAGTACACGTGCGGTT", "relative binding free energy": 0.13}, {"sequence": "TGCGTCACGTGGCTTA", "relative binding free energy": -0.04}, {"sequence": "TCTGACACGTGTGTGG", "relative binding free energy": 0.03}, {"sequence": "CATTACACGTGGTGAT", "relative binding free energy": 0.03}, {"sequence": "AGCTTCACGTGGTTAG", "relative binding free energy": 0.25}, {"sequence": "TGGGCCACGTGTAGGA", "relative binding free energy": 0.05}, {"sequence": "TCATGCACGTGATTGA", "relative binding free energy": 0.2}, {"sequence": "TTAGCCACGTGTATGG", "relative binding free energy": -0.09}, {"sequence": "ATGGACACGTGATCTT", "relative binding free energy": 0.18}, {"sequence": "GGAGTCACGTGAATGA", "relative binding free energy": 0.32}, {"sequence": "AGAGCCACGTGAGGAT", "relative binding free energy": 0.33}, {"sequence": "GGATTCACGTGATGGG", "relative binding free energy": 0.32}, {"sequence": "AGAGGCACGTGAGCGT", "relative binding free energy": -0.08}, {"sequence": "AGTGGCACGTGAGGGC", "relative binding free energy": 0.1}, {"sequence": "TCGTTCACGTGTTTAG", "relative binding free energy": 0.16}, {"sequence": "AGATTCACGTGTGTGG", "relative binding free energy": 0.26}, {"sequence": "GGGGGCACGTGAGCAG", "relative binding free energy": 0.13}, {"sequence": "ATTTCCACGTGTGTGG", "relative binding free energy": 0.08}, {"sequence": "CGGAGCACGTGTTATG", "relative binding free energy": -0.18}, {"sequence": "GGGCTCACGTGCTGTG", "relative binding free energy": 0.2}, {"sequence": "TTTTCCACGTGTCAGG", "relative binding free energy": 0.17}, {"sequence": "ACGTTCACGTGCGGGT", "relative binding free energy": 0.31}, {"sequence": "CAGGGCACGTGCATGT", "relative binding free energy": -0.17}, {"sequence": "ATCTTCACGTGTGGTT", "relative binding free energy": 0.21}, {"sequence": "TATTGCACGTGGAGAA", "relative binding free energy": -0.06}, {"sequence": "GTGCTCACGTGGATAG", "relative binding free energy": 0.13}, {"sequence": "AAGGTCACGTGTGATT", "relative binding free energy": 0.25}, {"sequence": "ATTCGCACGTGATTGT", "relative binding free energy": 0.06}, {"sequence": "GTGATCACGTGCGTGG", "relative binding free energy": 0.05}, {"sequence": "GCATGCACGTGGATTT", "relative binding free energy": 0.04}, {"sequence": "CTGGTCACGTGTATGG", "relative binding free energy": 0.06}, {"sequence": "TCTAACACGTGTGGTC", "relative binding free energy": 0.29}, {"sequence": "TTAGGCACGTGATAGC", "relative binding free energy": -0.12}, {"sequence": "GGGTACACGTGAGTGT", "relative binding free energy": 0.3}, {"sequence": "AAATTCACGTGGTCTG", "relative binding free energy": 0.29}, {"sequence": "CTTGGCACGTGGCAGT", "relative binding free energy": -0.22}, {"sequence": "AGGTTCACGTGCTGCG", "relative binding free energy": 0.07}, {"sequence": "GGTAACACGTGGGATG", "relative binding free energy": -0.03}, {"sequence": "AATATCACGTGTGACG", "relative binding free energy": 0.28}, {"sequence": "TTTGGCACGTGTTAGC", "relative binding free energy": 0.02}, {"sequence": "ATAAGCACGTGGGTAG", "relative binding free energy": -0.14}, {"sequence": "GGGTTCACGTGAAATG", "relative binding free energy": 0.63}, {"sequence": "GGATTCACGTGTTGTC", "relative binding free energy": 0.4}, {"sequence": "TGCTTCACGTGCGTGG", "relative binding free energy": 0.08}, {"sequence": "TGTCACACGTGAGTTG", "relative binding free energy": 0.25}, {"sequence": "ATAGTCACGTGGGACG", "relative binding free energy": -0.07}, {"sequence": "GGCGACACGTGGGGCT", "relative binding free energy": 0.05}, {"sequence": "GTATTCACGTGGGGCG", "relative binding free energy": 0.21}, {"sequence": "ATCGTCACGTGGAATA", "relative binding free energy": 0.29}, {"sequence": "TAAGGCACGTGGGCCG", "relative binding free energy": -0.28}, {"sequence": "GCATTCACGTGGGGAG", "relative binding free energy": 0.16}, {"sequence": "GAAGACACGTGTGGAG", "relative binding free energy": 0.15}, {"sequence": "TTTAGCACGTGGTGGG", "relative binding free energy": -0.16}, {"sequence": "GTAACCACGTGGGGTT", "relative binding free energy": -0.1}, {"sequence": "AGGTGCACGTGAGCGA", "relative binding free energy": 0.12}, {"sequence": "TGTCACACGTGTTGAG", "relative binding free energy": 0.06}, {"sequence": "GAAGTCACGTGACGGG", "relative binding free energy": 0.22}, {"sequence": "TGTGACACGTGGCAAG", "relative binding free energy": 0.02}, {"sequence": "GTGGGCACGTGTGACG", "relative binding free energy": -0.11}, {"sequence": "TTGTCCACGTGGGTAT", "relative binding free energy": -0.04}, {"sequence": "AGGTCCACGTGGTTGA", "relative binding free energy": -0.17}, {"sequence": "TTAAGCACGTGAAGTT", "relative binding free energy": 0.39}, {"sequence": "GGGTGCACGTGGTTTA", "relative binding free energy": -0.05}, {"sequence": "TTTTTCACGTGTTTGG", "relative binding free energy": 0.3}, {"sequence": "TGGTGCACGTGTTTTC", "relative binding free energy": 0.02}, {"sequence": "AGTGGCACGTGTCGGT", "relative binding free energy": -0.11}, {"sequence": "GTAATCACGTGTGGCA", "relative binding free energy": 0.29}, {"sequence": "TGGCTCACGTGATTAT", "relative binding free energy": 0.41}, {"sequence": "CGGTACACGTGGTCGT", "relative binding free energy": -0.09}, {"sequence": "GTTGGCACGTGCTTCA", "relative binding free energy": 0.02}, {"sequence": "GGGTTCACGTGTACAG", "relative binding free energy": 0.27}, {"sequence": "TTCAGCACGTGGTTAT", "relative binding free energy": -0.19}, {"sequence": "ATTCTCACGTGTGTGA", "relative binding free energy": 0.21}, {"sequence": "GGGTACACGTGCGCGG", "relative binding free energy": -0.14}, {"sequence": "CGGGGCACGTGTAGTG", "relative binding free energy": -0.13}, {"sequence": "CGGTACACGTGTGTAG", "relative binding free energy": 0.09}, {"sequence": "GTGGGCACGTGATGAG", "relative binding free energy": 0.16}, {"sequence": "ATACGCACGTGTTTAT", "relative binding free energy": -0.04}, {"sequence": "TTGAACACGTGAGTAG", "relative binding free energy": 0.18}, {"sequence": "CTTATCACGTGTATGT", "relative binding free energy": 0.23}, {"sequence": "GGGGGCACGTGTACAA", "relative binding free energy": -0.02}, {"sequence": "ATATGCACGTGTTATA", "relative binding free energy": -0.04}, {"sequence": "AGCGGCACGTGGATGG", "relative binding free energy": -0.01}, {"sequence": "TAGTACACGTGTTGAT", "relative binding free energy": 0.1}, {"sequence": "GATAACACGTGTGTAG", "relative binding free energy": 0.09}, {"sequence": "TAATTCACGTGCGGTC", "relative binding free energy": 0.36}]}]}
